{
  "source": "paper PMC4336329",
  "about": "(PLoS ONE, 2015)",
  "note": "About 2,200 (0.71%) of roughly 310,000 compounds showed an effect of 50% or more. The effect is printed as a negative number. This is one part of the list.",
  "data": [
    {"molecular_target": "human ether-à-go-go-related gene (hERG) potassium channel (human, UniProt Q12809)", "sequence (Q12809 whole entry, looked up)": "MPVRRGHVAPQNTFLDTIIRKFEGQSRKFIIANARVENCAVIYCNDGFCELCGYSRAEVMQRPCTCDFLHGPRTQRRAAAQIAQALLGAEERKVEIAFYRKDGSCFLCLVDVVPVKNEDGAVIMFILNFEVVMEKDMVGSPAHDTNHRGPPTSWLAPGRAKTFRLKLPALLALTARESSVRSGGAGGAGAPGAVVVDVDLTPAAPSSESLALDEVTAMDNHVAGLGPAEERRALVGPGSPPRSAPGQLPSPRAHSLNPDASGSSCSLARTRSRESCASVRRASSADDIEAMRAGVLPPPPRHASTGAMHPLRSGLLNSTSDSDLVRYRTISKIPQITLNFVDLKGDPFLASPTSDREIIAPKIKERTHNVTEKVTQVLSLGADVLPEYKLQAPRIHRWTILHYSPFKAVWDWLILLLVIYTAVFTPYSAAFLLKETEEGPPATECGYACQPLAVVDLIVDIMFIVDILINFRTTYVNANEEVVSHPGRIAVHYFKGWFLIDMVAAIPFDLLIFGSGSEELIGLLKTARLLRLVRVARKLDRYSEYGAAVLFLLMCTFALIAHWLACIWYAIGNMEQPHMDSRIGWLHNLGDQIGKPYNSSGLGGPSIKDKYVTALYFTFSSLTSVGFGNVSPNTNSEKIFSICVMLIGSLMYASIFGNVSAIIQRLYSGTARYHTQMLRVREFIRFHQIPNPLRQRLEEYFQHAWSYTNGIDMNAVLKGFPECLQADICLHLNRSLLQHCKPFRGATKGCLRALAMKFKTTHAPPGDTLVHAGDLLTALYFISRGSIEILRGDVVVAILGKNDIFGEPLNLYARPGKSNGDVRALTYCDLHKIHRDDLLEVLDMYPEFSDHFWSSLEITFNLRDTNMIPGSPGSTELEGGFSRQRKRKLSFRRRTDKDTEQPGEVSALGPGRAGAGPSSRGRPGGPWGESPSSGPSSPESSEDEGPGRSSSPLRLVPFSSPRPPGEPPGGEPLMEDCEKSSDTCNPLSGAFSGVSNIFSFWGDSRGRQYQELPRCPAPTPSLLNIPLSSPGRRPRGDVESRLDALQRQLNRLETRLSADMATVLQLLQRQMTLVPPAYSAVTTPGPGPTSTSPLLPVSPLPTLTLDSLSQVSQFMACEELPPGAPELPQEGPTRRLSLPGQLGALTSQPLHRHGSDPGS", "assay": "primary screen, population patch clamp on CHO cells stably expressing hERG", "units": {"hERG current change (%, negative = inhibition) at 1uM": "%"}, "values": [
      {"smiles": "Cc1c(/C=C2\\SC(=Nc3cccc(C(=O)O)c3)NC2=O)c2ccccc2n1C", "hERG current change (%, negative = inhibition) at 1uM": 3.96},
      {"smiles": "Clc1nc(Cl)nc(N(c2ccccc2)c2ccccc2)n1", "hERG current change (%, negative = inhibition) at 1uM": 4.34},
      {"smiles": "CN(C(=O)c1ccc2c(c1)S(=O)(=O)N=C1CCCCCN12)c1ccccc1", "hERG current change (%, negative = inhibition) at 1uM": 8.7},
      {"smiles": "O=C(NC1CCN(C(=O)NC2CCCCC2)CC1)c1cccc(F)c1", "hERG current change (%, negative = inhibition) at 1uM": 10.9},
      {"smiles": "C=CCNC(=O)COc1ccc(S(=O)(=O)Nc2ccc(OCC)cc2)cc1", "hERG current change (%, negative = inhibition) at 1uM": 9.68},
      {"smiles": "CC1CC(C)(C)CC2(C1)NC(=O)N(CC(=O)Nc1nccs1)C2=O", "note": "(centres unmarked)", "hERG current change (%, negative = inhibition) at 1uM": 6.1},
      {"smiles": "O=C(NS(=O)(=O)c1ccc(NC(=O)C2CCCO2)cc1)c1ccccc1", "note": "(centres unmarked)", "hERG current change (%, negative = inhibition) at 1uM": -0.266},
      {"smiles": "CC(C)n1nc(C(=O)Nc2cccc(S(=O)(=O)N3CCOCC3)c2)c2ccccc2c1=O", "hERG current change (%, negative = inhibition) at 1uM": 3.84},
      {"smiles": "CC1=C/C(=N\\NC(=S)NCc2ccccc2)CC1", "hERG current change (%, negative = inhibition) at 1uM": 1.56},
      {"smiles": "O=S(=O)(NCCO)c1ccc2c(c1)Cc1cc(S(=O)(=O)NCCO)ccc1-2", "hERG current change (%, negative = inhibition) at 1uM": 6.46},
      {"smiles": "Cc1ccc(-c2n[nH]c(=S)nc2-c2ccc(C)cc2)cc1", "hERG current change (%, negative = inhibition) at 1uM": 14.1},
      {"smiles": "Cc1ccc(-n2c(O)c(/C=N/n3cnnc3)c3ccccc3c2=O)cc1", "note": "[7972794]", "hERG current change (%, negative = inhibition) at 1uM": 6.44},
      {"smiles": "Cc1cc(C(=O)NC2CC(C)(C)Cc3c2cnn3-c2ccc(F)cc2)no1", "note": "(centres unmarked)", "hERG current change (%, negative = inhibition) at 1uM": 5.59},
      {"smiles": "Cc1ccccc1NC(=S)N1CCN(c2ccccc2C)CC1", "hERG current change (%, negative = inhibition) at 1uM": 14.3},
      {"smiles": "CCC(C(=O)NC1CCCC1)N(C(=O)c1snc(C(N)=O)c1N)c1ccc(OC)c(OC)c1", "note": "(centres unmarked)", "hERG current change (%, negative = inhibition) at 1uM": 9.24},
      {"smiles": "COC(=O)/C=C1\\NC(=O)C(C)S1", "note": "(centres unmarked)", "hERG current change (%, negative = inhibition) at 1uM": 9.78},
      {"smiles": "CC(CCc1ccccc1)NCC#N.Cl", "note": "(centres unmarked)", "hERG current change (%, negative = inhibition) at 1uM": 13.2},
      {"smiles": "CN(Cc1ccccc1)C(=O)CCS(=O)(=O)c1ccc2c(c1)n(C)c(=O)c(=O)n2C", "hERG current change (%, negative = inhibition) at 1uM": -0.0562},
      {"smiles": "COc1ccc(COC(=O)C2=C(C)NC(=O)NC2c2ccc(OC)c(OC)c2)cc1", "note": "(centres unmarked)", "hERG current change (%, negative = inhibition) at 1uM": 12.4},
      {"smiles": "COc1ccccc1CNS(=O)(=O)c1ccc2c(c1)CC(C)N2C(=O)C1CC1", "note": "(centres unmarked)", "hERG current change (%, negative = inhibition) at 1uM": 11.4},
      {"smiles": "CC1NC(C)(C)Cc2c1ccc1ccccc21.Cl", "note": "(centres unmarked)", "hERG current change (%, negative = inhibition) at 1uM": 11.7},
      {"smiles": "COc1ccc(OC)c(NC(=O)COC(=O)c2ccc(OC)c(S(=O)(=O)N3CCCC3)c2)c1", "hERG current change (%, negative = inhibition) at 1uM": 9.36},
      {"smiles": "CC1(C)CC(/C=C/c2ccccc2)=Nc2ccccc2N1", "hERG current change (%, negative = inhibition) at 1uM": 1.65},
      {"smiles": "COC(=O)C1=C(c2cccc(OCc3ccccc3)c2)C[C@@H]2CC[C@H]1N2C(=O)NCc1ccc([N+](=O)[O-])cc1", "hERG current change (%, negative = inhibition) at 1uM": 14.2},
      {"smiles": "O=C1NC(c2ccncc2)Nc2ccccc21", "note": "(centres unmarked)", "hERG current change (%, negative = inhibition) at 1uM": 18.7},
      {"smiles": "COc1ccc(C2(CNC(=O)CCC(=O)O)CCCC2)cc1", "hERG current change (%, negative = inhibition) at 1uM": 5.81},
      {"smiles": "Cc1cc(OC(C)C(=O)NCCCn2ccnc2)c2c(C)c(C)c(=O)oc2c1", "note": "(centres unmarked)", "hERG current change (%, negative = inhibition) at 1uM": -51.6},
      {"smiles": "O=C(COc1ccccc1)Nc1ccc(S(=O)(=O)Nc2ncccn2)cc1", "hERG current change (%, negative = inhibition) at 1uM": 20.6},
      {"smiles": "CC(=O)OC1CC[C@@]2(C)C(CCC3C2CC(=O)[C@@]2(C)C3CC3CC(C)=CC(=O)C32)C1", "note": "(some centres unmarked)", "hERG current change (%, negative = inhibition) at 1uM": 9.73},
      {"smiles": "CN(C)C(=O)N1CCCC(C(=O)NCc2ccccc2)C1", "note": "(centres unmarked)", "hERG current change (%, negative = inhibition) at 1uM": 15.5},
      {"smiles": "CC(C)CCN=Cc1c(O)n(-c2ccccc2)c(=O)c2ccccc12", "hERG current change (%, negative = inhibition) at 1uM": -5.64},
      {"smiles": "O=C(Nc1ccc(Cl)cc1)Nc1nc(-c2ccccc2)cs1", "hERG current change (%, negative = inhibition) at 1uM": 10.3},
      {"smiles": "O=C1CN(C(=O)c2ccco2)C(c2ccc(F)cc2)c2cc(Cl)ccc2N1", "note": "(centres unmarked)", "hERG current change (%, negative = inhibition) at 1uM": -3.72},
      {"smiles": "O=C(Cn1ccsc1=NC(=O)c1ccco1)c1ccccc1", "hERG current change (%, negative = inhibition) at 1uM": -0.525},
      {"smiles": "CC1CCN(C(CNS(=O)(=O)c2ccccc2)c2ccccc2)CC1", "note": "(centres unmarked)", "hERG current change (%, negative = inhibition) at 1uM": 3.61},
      {"smiles": "CCN1CCN(C(=O)/C=C/c2ccc(C)cc2)CC1", "hERG current change (%, negative = inhibition) at 1uM": 4.54},
      {"smiles": "Cc1ccc(NS(=O)(=O)c2ccc(-c3ccc(=O)[nH]n3)o2)cc1", "hERG current change (%, negative = inhibition) at 1uM": -16.2},
      {"smiles": "CCSc1nnc(NC(=O)Nc2cccc(C)c2)s1", "hERG current change (%, negative = inhibition) at 1uM": 12.2},
      {"smiles": "CC(C)N(C(=O)CSc1nnc(NC(=O)C2CCC2)s1)C(C)C", "hERG current change (%, negative = inhibition) at 1uM": 0.774},
      {"smiles": "Cc1nn(C)c2nc(-c3cccs3)cc(C(F)(F)F)c12", "hERG current change (%, negative = inhibition) at 1uM": 7.38},
      {"smiles": "CCC(c1nnc(SCC(=O)NCCc2ccc(Cl)cc2Cl)o1)N(C)C", "note": "(centres unmarked)", "hERG current change (%, negative = inhibition) at 1uM": 4.09},
      {"smiles": "C/C(=N/OC(=O)C1CC12CCC2)c1ccc(Br)cc1", "note": "(centres unmarked)", "hERG current change (%, negative = inhibition) at 1uM": 8.04},
      {"smiles": "O=S(=O)(Nc1ccc2cn[nH]c2c1)c1ccc(Cl)cc1", "hERG current change (%, negative = inhibition) at 1uM": 26.7},
      {"smiles": "C/C(=N\\NC(=O)c1ccc(Cn2cc(Br)cn2)o1)c1cccc(NC(=O)C(C)(C)C)c1", "hERG current change (%, negative = inhibition) at 1uM": -15.4}
    ]}
  ]
}
